Test results reported in the supplement of paper PMC8728848.
This is one part of the list.

Tests used:
Assay in all cases: glycan array binding signal (z-score within array); higher = stronger binding
Conditions in all cases: glycan notation: IUPAC condensed, linker removed
[1] = molecular target: GlcNAc(b1-3)[GlcNAc(b1-6)]GlcNAc(b1-4)GlcNAc
Outline: (§1)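 Negative Z-scores can be read as non-binding. The Z-score is calculated within each array and then averaged across arrays of one protein sequence at different concentrations or buffers and across linkers. Arrays, 3228 in all, were curated from the Consortium for Functional Glycomics database and kept only where the protein sequence was available.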

[2] = molecular target: GlcNAc(b1-4)Gal(b1-4)GlcNAc
Outline: as §1

GlcNAc(b1-4)GlcNAc = molecular target: GlcNAc(b1-4)GlcNAc
Outline: as §1

[3] = molecular target: GlcNAc(b1-4)GlcNAc(b1-4)GlcNAc
Outline: as §1

[4] = molecular target: GlcNAc(b1-4)GlcNAc(b1-4)GlcNAc(b1-4)GlcNAc(b1-4)GlcNAc
Outline: as §1

[5] = molecular target: GlcNAc(b1-4)GlcNAc(b1-4)GlcNAc(b1-4)GlcNAc(b1-4)GlcNAc(b1-4)GlcNAc
Outline: as §1

[6] = molecular target: GlcNAc(b1-4)[GlcNAc(b1-6)]GalNAc
Outline: as §1

[7] = molecular target: GlcNAc(b1-6)Gal(b1-4)GlcNAc
Outline: as §1

GlcNAc(b1-6)GalNAc = molecular target: GlcNAc(b1-6)GalNAc
Outline: as §1

GlcNAc3Prop(b1-4)GlcNAc = molecular target: GlcNAc3Prop(b1-4)GlcNAc
Outline: as §1

[8] = molecular target: GlcNAc6S(b1-3)Gal(b1-4)GlcNAc
Outline: as §1

Kdn(a2-3)Gal(b1-3)GalNAc = molecular target: Kdn(a2-3)Gal(b1-3)GalNAc
Outline: as §1

Kdn(a2-3)Gal(b1-3)GlcNAc = molecular target: Kdn(a2-3)Gal(b1-3)GlcNAc
Outline: as §1

Kdn(a2-3)Gal(b1-4)Glc = molecular target: Kdn(a2-3)Gal(b1-4)Glc
Outline: as §1

Kdn(a2-3)Gal(b1-4)GlcNAc = molecular target: Kdn(a2-3)Gal(b1-4)GlcNAc
Outline: as §1

[9] = molecular target: Kdn(a2-3)Gal(b1-4)[Fuc(a1-3)]GlcNAc
Outline: as §1

Kdn(a2-6)Gal(b1-4)GlcNAc = molecular target: Kdn(a2-6)Gal(b1-4)GlcNAc
Outline: as §1

[10] = molecular target: Man(a1-2)Man(a1-2)Man(a1-3)Man
Outline: as §1

[11] = molecular target: Man(a1-2)Man(a1-2)Man(a1-6)[Man(a1-3)]Man
Outline: as §1

Man(a1-2)Man(a1-3)Man = molecular target: Man(a1-2)Man(a1-3)Man
Outline: as §1

[12] = molecular target: Man(a1-2)Man(a1-3)[Man(a1-2)Man(a1-6)]Man
Outline: as §1

[13] = molecular target: Man(a1-2)Man(a1-3)[Man(a1-2)Man(a1-6)]Man(a1-6)[Man(a1-2)Man(a1-2)Man(a1-3)]Man
Outline: as §1

[14] = molecular target: Man(a1-2)Man(a1-3)[Man(a1-2)Man(a1-6)]Man(a1-6)[Man(a1-2)Man(a1-2)Man(a1-3)]Man(b1-4)GlcNAc(b1-4)GlcNAc
Outline: as §1

[15] = molecular target: Man(a1-2)Man(a1-3)[Man(a1-6)]Man(a1-6)[Man(a1-2)Man(a1-3)]Man(b1-4)GlcNAc(b1-4)GlcNAc
Outline: as §1

[16] = molecular target: Man(a1-2)Man(a1-6)[Man(a1-3)]Man(a1-6)[Man(a1-2)Man(a1-2)Man(a1-3)]Man
Outline: as §1

[17] = molecular target: Man(a1-2)Man(a1-6)[Man(a1-3)]Man(a1-6)[Man(a1-2)Man(a1-2)Man(a1-3)]Man(b1-4)GlcNAc(b1-4)GlcNAc
Outline: as §1

Man(a1-3)[Man(a1-6)]Man = molecular target: Man(a1-3)[Man(a1-6)]Man
Outline: as §1

[18] = molecular target: Man(a1-3)[Man(a1-6)]Man(a1-6)[Man(a1-2)Man(a1-3)]Man(b1-4)GlcNAc(b1-4)GlcNAc
Outline: as §1

[19] = molecular target: Man(a1-3)[Man(a1-6)]Man(a1-6)[Man(a1-3)]Man
Outline: as §1

[20] = molecular target: Man(a1-3)[Man(a1-6)]Man(a1-6)[Man(a1-3)]Man(b1-4)GlcNAc(b1-4)GlcNAc
Outline: as §1

[21] = molecular target: Man(a1-3)[Man(a1-6)]Man(b1-4)GlcNAc(b1-4)GlcNAc
Outline: as §1

Man(a1-6)Man = molecular target: Man(a1-6)Man
Outline: as §1

Man(b1-4)GlcNAc = molecular target: Man(b1-4)GlcNAc
Outline: as §1

Neu5Ac(a2-3)Gal = molecular target: Neu5Ac(a2-3)Gal
Outline: as §1

[22] = molecular target: Neu5Ac(a2-3)Gal(b1-3)GalNAc
Outline: as §1

[23] = molecular target: Neu5Ac(a2-3)Gal(b1-3)GalNAc(b1-3)Gal(a1-4)Gal(b1-4)Glc
Outline: as §1

[24] = molecular target: Neu5Ac(a2-3)Gal(b1-3)GalNAc(b1-3)Gal(b1-4)GlcNAc
Outline: as §1

[25] = molecular target: Neu5Ac(a2-3)Gal(b1-3)GalNAc(b1-4)[Neu5Ac(a2-3)]Gal(b1-4)Glc
Outline: as §1

[26] = molecular target: Neu5Ac(a2-3)Gal(b1-3)GalNAc(b1-4)[Neu5Ac(a2-8)Neu5Ac(a2-3)]Gal(b1-4)Glc
Outline: as §1

[27] = molecular target: Neu5Ac(a2-3)Gal(b1-3)GalNAc6S
Outline: as §1

[28] = molecular target: Neu5Ac(a2-3)Gal(b1-3)GlcNAc
Outline: as §1

[29] = molecular target: Neu5Ac(a2-3)Gal(b1-3)GlcNAc(b1-3)Gal(b1-3)GlcNAc
Outline: as §1

[30] = molecular target: Neu5Ac(a2-3)Gal(b1-3)GlcNAc(b1-3)Gal(b1-4)GlcNAc
Outline: as §1

[31] = molecular target: Neu5Ac(a2-3)Gal(b1-3)GlcNAc(b1-3)GalNAc
Outline: as §1

[32] = molecular target: Neu5Ac(a2-3)Gal(b1-3)GlcNAc6S
Outline: as §1

B1: BC2L-A (Burkholderia cenocepacia), Q1BKJ8_BURCA (protein)
chain: ADSQTSSNRAGEFSIPPNTDFRAIFFANAAEQQHIKLFIGDSQEPAAYHKLTTRDGPREATLNSGNGKIRFEVSVNGKPSATDARLAPINGKKSDGSPFTVNFGIVVSEDGHDSDYNDGIVVLQWPIG
glycan array binding signal (z-score) [1]: -0.249 | glycan array binding signal (z-score) [2]: 0.123 | glycan array binding signal (z-score) (GlcNAc(b1-4)GlcNAc): -0.299 | glycan array binding signal (z-score) [3]: -0.293 | glycan array binding signal (z-score) [4]: -0.271 | glycan array binding signal (z-score) [5]: 0.107 | glycan array binding signal (z-score) [6]: -0.26 | glycan array binding signal (z-score) [7]: -0.188 | glycan array binding signal (z-score) (GlcNAc(b1-6)GalNAc): -0.073 | glycan array binding signal (z-score) (GlcNAc3Prop(b1-4)GlcNAc): -0.284 | glycan array binding signal (z-score) [8]: -0.295 | glycan array binding signal (z-score) (Kdn(a2-3)Gal(b1-3)GalNAc): -0.275 | glycan array binding signal (z-score) (Kdn(a2-3)Gal(b1-3)GlcNAc): -0.292 | glycan array binding signal (z-score) (Kdn(a2-3)Gal(b1-4)Glc): -0.297 | glycan array binding signal (z-score) (Kdn(a2-3)Gal(b1-4)GlcNAc): -0.291 | glycan array binding signal (z-score) [9]: -0.284 | glycan array binding signal (z-score) (Kdn(a2-6)Gal(b1-4)GlcNAc): -0.298 | glycan array binding signal (z-score) [10]: 2.48 | glycan array binding signal (z-score) [11]: 4.07 | glycan array binding signal (z-score) (Man(a1-2)Man(a1-3)Man): 1.98 | glycan array binding signal (z-score) [12]: 2.25 | glycan array binding signal (z-score) [13]: 4.82 | glycan array binding signal (z-score) [14]: 3.02 | glycan array binding signal (z-score) [15]: 3.85 | glycan array binding signal (z-score) [16]: 4.09 | glycan array binding signal (z-score) [17]: 5.06 | glycan array binding signal (z-score) (Man(a1-3)[Man(a1-6)]Man): 5.28 | glycan array binding signal (z-score) [18]: 5.49 | glycan array binding signal (z-score) [19]: 3.88 | glycan array binding signal (z-score) [20]: 4.38 | glycan array binding signal (z-score) [21]: 4.23 | glycan array binding signal (z-score) (Man(a1-6)Man): 0.444 | glycan array binding signal (z-score) (Man(b1-4)GlcNAc): -0.291 | glycan array binding signal (z-score) (Neu5Ac(a2-3)Gal): -0.292 | glycan array binding signal (z-score) [22]: -0.289 | glycan array binding signal (z-score) [23]: -0.283 | glycan array binding signal (z-score) [24]: -0.327 | glycan array binding signal (z-score) [25]: -0.291 | glycan array binding signal (z-score) [26]: -0.183 | glycan array binding signal (z-score) [27]: -0.291 | glycan array binding signal (z-score) [28]: -0.292 | glycan array binding signal (z-score) [29]: -0.272 | glycan array binding signal (z-score) [30]: -0.218 | glycan array binding signal (z-score) [31]: -0.218 | glycan array binding signal (z-score) [32]: 0.08
